The whole screen tested about 150,000 compounds, of which about 540 (0.36%) showed an effect of 50% or more. This is one part of the list.

The test system of the test is Plasmodium falciparum. Briefly: Primary screen in NF54 nanoGlo assay, in single point, at 2uM, 72h; a lower Z score goes with more inhibition. It counts as functional, Erythrocyte. To be noted: timepoint 72 hour.
As to `Cc1cnc(C)c(-c2cc(O)c3c(c2)CN(c2ncnc4[nH]ccc24)CCO3)n1`, the “% Inhibition” value is given as -6% and the Z score is reported as 0.58.

As for `O=C1CN(C(=O)Cn2nnc3ccccc32)c2ccccc2N1`, the “% Inhibition” value is recorded as -12% and the Z score came out at 1.37.

As for `COc1cc(CN(C)CCC(=O)N(C)OC)sn1`, the “% Inhibition” value is recorded as -10% and the Z score worked out at 1.6.

For the compound `Cc1noc(C2CN(Cc3ccc(Br)cc3)C2)n1`, the “% Inhibition” value is recorded as -2% and the Z score was determined as 0.35.

Consider `CN(C)S(=O)(=O)c1ccc(NC2CCC3(CC2)OCCO3)c(S(N)(=O)=O)c1`, for which the “% Inhibition” value is 2% and the Z score was -0.19.

Take `CO[C@H]1[C@@H]2CC[C@H]1CN(C(=O)NCCc1csc(-c3ncccn3)n1)C2`: the “% Inhibition” value came out at 0% and the Z score is -0.04.

As to `CCOc1ccc(C(=O)NCc2sc(-c3ccccc3Cl)nc2C)cc1`, the “% Inhibition” value amounted to 5% and the Z score was -1.04.

With `Cc1cc(C)nc(CN(C)C(=O)c2cnc(NC(C)C)nc2)c1`, the “% Inhibition” value was -15% and the Z score is 1.36.

Regarding `CCOC(=O)c1c(C)[nH]c(-c2ccccc2)c1-c1ccccc1`, the “% Inhibition” value is reported as -9% and the Z score came out at 1.57.

Turning to `CCCCN(CCC(=O)Nc1nnc(-c2ccc(C)cc2)s1)C(=O)C1CCC1`, the “% Inhibition” value is on record as -14% and the Z score was found to be 1.59.

For the compound `O=C(O)C1CCN(C(=O)Nc2ccnc(Oc3ccccc3Cl)c2)CC1`, the “% Inhibition” value is listed as -13% and the Z score amounted to 2.52.

With `Cc1nc(C(=O)NC[C@H]2CC3c4ccccc4C2c2ccccc23)n(C)n1`, the “% Inhibition” value is recorded as -1% and the Z score is recorded as 0.12.

Take `Cc1nc([C@H]2CCOC2)cc(N2CCN(C3CCN(C)CC3)CC2)n1`: the “% Inhibition” value was found to be 7% and the Z score is reported as -0.92.

`CC(C)[C@@H](C(=O)NCc1nnc(C2CC2)o1)N1CCCCC1`: the “% Inhibition” value is recorded as -15% and the Z score was determined as 2.74.

Regarding `CC(=O)N1C[C@@H]2CCCN3CCC[C@@H]([C@H]23)[C@H]1CCCC(=O)NCc1cc(F)cc(F)c1`, the “% Inhibition” value is listed as 2% and the Z score is on record as -0.41.

Consider `CN=C(NCC(C)C)NC[C@H](O)c1cc(OC)ccc1OC`, for which the “% Inhibition” value is given as -14% and the Z score is on record as 1.32.

In the case of `CCS(=O)(=O)Nc1ccc(S(=O)(=O)N2CCC=C(F)C2)cc1F`, the “% Inhibition” value is -13% and the Z score is on record as 1.67.

`Cc1ccc2c(c1)cc(CN1CCn3nc(CO)cc3C1)n2C`: the “% Inhibition” value is reported as -1% and the Z score is on record as 0.21.

In the case of `CC(C)(CN1CCOCC1)CN1CCC[C@H]1c1nc(-c2ccccn2)no1`, the “% Inhibition” value was found to be 5% and the Z score was -0.61.

With `CCO[C@H](c1noc(-c2cc(C)no2)n1)C1CCOCC1`, the “% Inhibition” value came to 10% and the Z score is -1.29.

`Cn1nccc1NC(=O)Cn1ccc2cc(-c3ccc4c(c3)OCO4)ccc21`: the “% Inhibition” value was -4% and the Z score was 0.64.

For `COc1ccc(Nc2cccc(NC(=O)C3(C(F)(F)F)CCOCC3)c2)cc1`, the “% Inhibition” value came to 1% and the Z score was -0.19.

Take `O=C(CCNC(=O)C1CCN(S(=O)(=O)c2ccc(Cl)cc2)CC1)NC1CC1`: the “% Inhibition” value is given as -1% and the Z score amounted to 0.16.

For `C[C@]1(O)CCN(S(=O)(=O)c2cccc3c2CCCC3)C1`, the “% Inhibition” value is recorded as -1% and the Z score is on record as 0.11.

`CN1C2CCC1CN(C(=O)Nc1ccc(S(C)(=O)=O)c(C(F)F)c1)CC2` (centres undefined): the “% Inhibition” value was -16% and the Z score was found to be 3.08.

In the case of `N#CC1(C(=O)N[C@@H]2CCCC(F)(F)[C@H]2O)CCCC1`, the “% Inhibition” value is reported as -10% and the Z score stood at 1.46.

As for `CCc1nc(C)ccc1OCc1nnc(C)n1C1CC1`, the “% Inhibition” value was -7% and the Z score was 0.83.

Consider `O=C(CN1CCOCC1)N1CCN(Cc2nc(-c3ccsc3)no2)CC1`, for which the “% Inhibition” value was -5% and the Z score turned out to be 1.02.

With `C[C@@H](C(=O)Nc1ccccc1N1CCc2ccccc21)n1cncn1`, the “% Inhibition” value is listed as -1% and the Z score was found to be 0.13.

Take `CCN1c2cc(C(=O)Nc3ccc(C)c(F)c3)ccc2C(=O)N2CCC[C@@H]21`: the “% Inhibition” value came to 9% and the Z score is -1.13.

Take `CC[C@H]1C=CCN1C(=O)c1coc(CN2CCN(c3ncccn3)CC2)n1`: the “% Inhibition” value was found to be 0% and the Z score is -0.03.

As to `Cc1cccnc1N(C(=O)c1cccs1)C(=O)c1cccs1`, the “% Inhibition” value was -14% and the Z score was 1.79.

For the compound `CC(C)c1nccc(CN(C)CC2(C)COC2)n1`, the “% Inhibition” value is listed as -13% and the Z score is 1.25.

As to `O=C(NCC1CCN(C(=O)c2cn3cc(Cl)ccc3n2)CC1)[C@@H]1CCCO1`, the “% Inhibition” value is given as -2% and the Z score came to 0.36.

On to `COC(=O)c1nc(NC(=O)Cc2ccc3c(c2)OCC3)sc1CC(C)C`, for which the “% Inhibition” value is -15% and the Z score came out at 1.92.

`CCCCCc1ccc(C(=O)N2CCN(c3nc(-c4cccc(C)c4)nc(C)c3CC)CC2)cc1`: the “% Inhibition” value is recorded as -2% and the Z score was found to be 0.47.

As to `COC(=O)C(C)(C)CNC1CCC(C)C1` (centres undefined), the “% Inhibition” value is recorded as -9% and the Z score came out at 0.93.

`Cc1ncccc1OCC(=O)N1CCCCC1`: the “% Inhibition” value was -7% and the Z score stood at 1.19.

With `c1ccc(CN(Cc2ccco2)C[C@H]2CCOC2)nc1`, the “% Inhibition” value is 15% and the Z score is reported as -1.96.

Regarding `CCN(CC)CCn1ccnc1-c1ccc2onc(C)c2c1`, the “% Inhibition” value is -8% and the Z score is on record as 1.02.

Take `COc1ccc(Cc2n[nH]c3c2CN(Cc2nccs2)CC3)cc1OC`: the “% Inhibition” value worked out at 6% and the Z score is given as -0.85.

In the case of `CC(C)(C)OC(=O)Nc1ccc(Cl)c(O)c1`, the “% Inhibition” value is -18% and the Z score came to 2.01.

The % Inhibition is the drop in the measured response relative to a control, in per cent.

The record behind these values is ChEMBL document CHEMBL4888484, “Replenishing the malaria drug discovery pipeline: Screening and hit evaluation of the MMV Hit Generation Library 1 (HGL1) against asexual blood stage Plasmodium falciparum ,using a nano luciferase reporter read-out” (2022).
